Out of some 110,000 compounds screened, about 230 (0.21%) showed an effect of 50% or more. This is one part of the list.
Target: DPAP1 (Plasmodium falciparum, UniProt Q8IIJ9)
Assay: primary screen, percent inhibition; read by cleavage of a fluorogenic dipeptide substrate; higher = more effect of the substance
Design: species or system P. falciparum D10 trophozoite lysates; single well
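Also: 30 min substrate incubation versus DMSO and 10 µM JCP410 controls.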

Chain of DPAP1 (Q8IIJ9 whole entry, looked up): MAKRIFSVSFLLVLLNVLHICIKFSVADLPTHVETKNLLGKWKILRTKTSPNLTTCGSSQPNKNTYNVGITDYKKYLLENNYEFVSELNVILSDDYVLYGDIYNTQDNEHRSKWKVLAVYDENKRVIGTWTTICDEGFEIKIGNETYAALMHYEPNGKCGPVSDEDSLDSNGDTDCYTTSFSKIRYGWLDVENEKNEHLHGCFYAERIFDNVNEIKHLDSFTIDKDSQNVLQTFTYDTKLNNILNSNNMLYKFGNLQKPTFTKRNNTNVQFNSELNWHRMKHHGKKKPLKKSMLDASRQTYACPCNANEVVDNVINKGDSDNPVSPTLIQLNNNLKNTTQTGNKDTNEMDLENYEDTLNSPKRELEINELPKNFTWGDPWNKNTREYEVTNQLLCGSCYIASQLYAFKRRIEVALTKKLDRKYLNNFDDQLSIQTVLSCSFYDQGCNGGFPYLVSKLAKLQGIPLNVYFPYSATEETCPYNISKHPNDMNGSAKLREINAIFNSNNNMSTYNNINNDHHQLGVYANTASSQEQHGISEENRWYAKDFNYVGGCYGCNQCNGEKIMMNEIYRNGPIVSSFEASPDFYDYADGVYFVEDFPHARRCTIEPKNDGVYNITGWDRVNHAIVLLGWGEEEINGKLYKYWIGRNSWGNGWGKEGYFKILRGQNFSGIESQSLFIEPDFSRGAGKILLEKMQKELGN

Compound | % Inhibition @ 10 uM
COc1ccc(C2C(C#N)=C(N)Oc3[nH]nc(-c4ccc5ccccc5c4)c32)cc1OC (stereo not shown) | 1.03%
COc1cccc(C(=O)NC2(C(F)(F)F)NC(=O)N(C(C)c3ccccc3)C2=O)c1 (stereo not shown) | -3.33%
O=C(O)CN1C(=O)CSc2ncccc21 | 0.0882%
CCN(CC)S(=O)(=O)c1nnc(NC(=O)c2ccc(OC)c(OC)c2)s1 | -3.51%
COc1ccc(/C=C2\Sc3ccccc3C2=O)cc1OC | -4.68%
O=C(Nc1ccccc1C(F)(F)F)c1cnccn1 | -5.48%
COc1ccc(Br)cc1C(=O)Nc1ccc(Cl)cc1C(=O)O | 2.44%
Cc1c(CNCCC2=CCCCC2)c(C(=O)O)c(C)n1Cc1ccc(F)cc1 | -3.67%
Cc1cccc2c1-c1sc(C(=O)NCCC(C)C)cc1CO2 | 0.291%
O=c1cc(-c2ccccc2)c2ccc3c(c2o1)CN(Cc1ccco1)CO3 | 2.54%
CCn1cnc2sc3c(c2c1=O)CCC(C(C)(C)C)C3 (stereo not shown) | 1.8%
N#CC1=C(N)Oc2cc(N)ccc2C1c1ccccc1C(F)(F)F (stereo not shown) | -5.65%
CC1=CC2=NC(Cc3ccccc3)(NC(=O)c3ccccc3)C(=O)N2C=C1 (stereo not shown) | -0.637%
CCc1c(C)sc(NC(=O)c2cccnc2)c1C(N)=O | -1.36%
Cc1cccc(C(=O)N2CCN(c3cccc(Cl)c3)CC2)c1 | -3.27%
COc1ccc(/C=C2\C(=O)NC(=O)N(Cc3ccc(F)cc3)C2=O)c(OC)c1 | -4.91%
O=c1nc(N2CCCCC2)sc2c1sc1ccccc12 | -4.58%
CC(=O)NCCCCCc1nc2ccccc2n1C | -3.49%
CC[C@@H](C)[C@H](NC(=O)OCc1ccccc1)C(=O)N[C@@H](CCc1ccccc1)C(=O)CO | 5.05%
Cc1cccc(/C=C(\C#N)c2nc3ccccc3[nH]2)c1O | -0.305%
Oc1ccc(CNc2ccccc2Br)c2cccnc12 | -9.98%
COc1ccc(NS(=O)(=O)c2cccc(C(=O)Nc3cccc(C)c3)c2)cc1 | 1.64%
O=c1cccc2n1C[C@H]1C[C@@H]2CN(Cc2ccc(Br)o2)C1 | -7.39%
O=C(NCCc1c[nH]c2ccccc12)c1nc(-c2ccc(C(F)(F)F)cc2)no1 | 4.57%
CCC(C)NC(=O)Cn1c2ccccc2c2cnnc(O)c21 (stereo not shown) | 1.38%

Compound | % Inhibition @ 10 uM
COc1cc(CNc2ccc3[nH]c(O)nc3c2)ccc1OCC(=O)NC(C)(C)C | -15.2%
CCN1CCC(NC(C)COC)CC1 (stereo not shown) | 4.28%
O=c1c(=O)c2cc(Cl)ccc2sc2ccccc12 | 2.39%
CC1CCN(C(=O)CN(Cc2ccc(Cl)cc2)S(=O)(=O)c2ccc(Cl)cc2)CC1 | -3.65%
CC(NC(=O)CCC(=O)O)c1ccccc1 (stereo not shown) | 3.42%
CC(C)C(=O)Nc1nc(O)c2c(n1)NC(C)C(C)N2C(=O)c1ccc[n+](Cc2ccccc2)c1 (stereo not shown) | 4.28%
O=S(=O)(Cc1ccccc1)Nc1ccccc1F | 1.88%
CCC(CC)NC(=O)C1C2C=CC(C2)C1C(=O)O (stereo not shown) | 2.84%
CC1=C(C(=O)N2CC(C)CC(C)C2)C2(CCC(C)CC2)OC1=O (stereo not shown) | -3.7%
O=C(C1CCCN(S(=O)(=O)c2cccs2)C1)N1CCn2c1cc1ccccc12 (stereo not shown) | -2.17%
Cc1ccc(C)c(OCCCN2CCNCC2)c1 | 3.52%
CC1=CC2=NC(=O)/C(=C\C=C\c3ccccc3)C(=N)N2O1 | 3.63%
CCc1[nH]nc2c1C1(C(=O)Nc3ccc(Cl)cc31)C(C#N)=C(N)O2 (stereo not shown) | -2.77%
Clc1ccc(Cn2ncc3c(N4CCCCC4)ncnc32)cc1 | -3.72%
COc1ccc(OC)c(-c2nc(O)c3c(n2)Oc2c(cc(Br)cc2OC)C3)c1 | -2.84%
CCN1C(=O)/C(=C\c2cc(C)n(-c3cc(Cl)ccc3C)c2C)C(C(=O)OC)=C1C | -3.63%
CCC(C)c1ccccc1OCC(=O)Nc1sc(C)c(C)c1C(N)=O (stereo not shown) | 5.24%
COc1ccc(CCNC(=O)COc2ccc(-c3nc4c(=O)n(C)c(=O)n(C)c4[nH]3)cc2)cc1OC | -3.33%
CCN(CC)c1ccc(NC(=O)c2ccoc2C)cc1 | 4.52%
O=C(O)C1C2C=CC(O2)C1C(=O)Nc1ccc(F)c(Cl)c1 (stereo not shown) | 0.431%
COc1ccc(NC(=O)c2sc3nc(-c4cccs4)ccc3c2N)cc1OC | -3.39%
C#CCOc1ccc(C=C2C(=O)c3ccccc3C2=O)cc1 | 3.79%
Cc1ccc(C)c(S(=O)(=O)Nc2ccc(C(=O)Nc3ccccc3F)cc2)c1 | -1.04%
CC(Cc1ccccc1F)NCc1ccccn1 (stereo not shown) | -1.42%
O=C(COc1ccc(Br)cc1)N1CCN(c2ccc(F)cc2)CC1 | 0.993%

Compound | % Inhibition @ 10 uM
CSc1nc2c(c(=O)n1CC1CCCCC1)C1(CCCCC1)Cc1ccccc1-2 | -7.54%
CCN(CC)CCn1c(NC(=O)c2ccc(Br)cc2)nc2ccccc21 | -0.216%
O=C(OCCCNc1nc(-c2ccc(Cl)cc2)nc2ccccc12)c1ccncc1 | 1.52%
CCOC(=O)C1=C(O)/C(=C\c2ccc(C(C)C)cc2)N=C1C | -1.6%
COc1ccc(C(=O)Nc2cccc(NC(C)=O)c2)cc1OC | -8.76%
Cc1cc(C)c2nc(N3CCC(C(=O)NCc4cccc(Cl)c4)CC3)sc2c1 | -1.58%
Cn1c(=O)c2c(nc(Sc3nc4ccccc4n3CC(=O)NC3CCCCC3)n2C)n(C)c1=O | 3.99%
CC(=O)Nc1ccc(CN2CCN(Cc3ccccc3)CC2)cc1 | -4.35%
CCCN(CCC)C(=O)CSc1nc2ccncc2[nH]1 | 4.83%
COCCNc1nc2c(-c3cccc(C(F)(F)F)c3)nnn2c2ccccc12 | 2.04%
O=S(=O)(NCc1ccco1)c1ccc2[nH]c3c(c2c1)CCCC3 | -9.17%
CCOC(=O)C1=C(C)N=C(C)/C(=C(/O)OCC)C1c1ccc(C)cc1 (stereo not shown) | 3.76%
O=C(C1=C(O)C(=O)N(CCN2CCOCC2)C1c1cccnc1)c1cc2ccccc2o1 (stereo not shown) | -4.39%
COC(=O)c1ccc(Oc2nc3c(c(=O)n(C)c(=O)n3C)n2Cc2ccc(C#N)cc2)cc1 | -1.03%
N=c1c(C(=O)NCCN2CCOCC2)cc2c(=O)n3ccccc3nc2n1C1CCCC1 | 1.97%
O=c1ccc2ccc(OCc3ccccc3Cl)cc2o1 | 3.06%
O=C(O)c1ccccc1Nc1ccc(Cl)cc1 | -6.49%
O=c1c2nccnc2nc(SCc2cccc(F)c2)n1CCc1c[nH]c2ccccc12 | -2.79%
Cc1nn(C)cc1NC(=O)CC12CC3CC(CC(C3)C1)C2 | -4.35%
CCOc1ccc(Sc2cc(C(=O)NCC3CCCO3)c3ccccc3n2)cc1 (stereo not shown) | -0.0542%
CS(=O)(=O)N(CC(=O)NC1CCCC1)c1ccc(Oc2ccccc2)cc1 | -5.13%
O=C1C2C3C=CC(CO)(O3)C2C(=O)N1c1cc(Cl)ccc1Cl (stereo not shown) | 2.65%
c1ccc2[nH]c(NCCN3CCOCC3)nc2c1 | -3.33%
Cc1ccc(O)c(CCc2ccc(O)c(O)c2)n1 | 1.29%
COc1ccc(/C=C2\Cc3ccccc3C2=O)cc1Br | 4.79%

Compound | % Inhibition @ 10 uM
O=C(NCCN1CCC(Cc2ccccc2)CC1)C(c1ccccc1)N1Cc2ccccc2C1=O (stereo not shown) | -1.58%
Cc1cc(CNC(=O)c2ccc(Br)o2)c2ccccc2n1 | -0.834%
CCCC1=C(C(=O)OCC)C(c2cccs2)C(C#N)=C(N)O1 (stereo not shown) | 2.82%
CCOC(=O)c1c(N)sc(C(=O)N2CCOCC2)c1C | -1.82%
CC1CCCCC1NC(=O)CN(C)S(=O)(=O)c1cccc2nsnc12 (stereo not shown) | -2.17%
CC(C)(C)c1cc(CN2CCOCC2)c(O)c(C(C)(C)C)c1 | -0.0217%
Cc1cccc(NCc2ccc(Cl)cc2)n1 | 1.19%
Cc1ccc(NC(=O)C2CC(=O)N(c3ccc(C)c(C)c3)C2)c(C)c1 (stereo not shown) | -2.29%
C=CCNC(=O)C1CCN(S(=O)(=O)CC)CC1 | 0.514%
CN1CC[C@@]2(O)CCCC[C@@H]2[C@H]1c1ccc(Cl)cc1Cl | -0.771%
COc1ccc(CCNC(=O)CSc2nncn3c2cc2occc23)cc1OC | -1.67%
CC1(C)CC(=O)C2=C(C1)N(CCCN1CCOCC1)C(=O)C2(NC(=O)c1ccccc1)C(F)(F)F (stereo not shown) | 2.1%
Cc1ccc(SCCC(=O)NCc2ccccc2C)cc1 | -7.16%
COc1ccc(-c2nc(CS(=O)CC(=O)N3CCC4(CC3)OCCO4)c(C)o2)cc1 (stereo not shown) | 0.689%
COC(=O)c1sc2nccc(N(C)C)c2c1N | -1.98%
CC(C)c1ccccc1NC(=O)c1cnccn1 | -3.74%
Cc1ccc(NC(=O)Cn2cc(C#N)c3ccccc32)c(C)c1 | 0.746%
C=CCn1c(=N)c(C(=O)NCc2cccnc2)cc2c(=O)n3cccc(C)c3nc21 | -1.47%
Cn1nc(C(=O)N2CC=C(c3ccccc3)CC2)c2c1-c1ccccc1S(=O)(=O)C2 | 5.82%
CCOc1ccc(NC(=O)CCC(=O)c2ccc(-c3ccccc3)cc2)cc1 | 1.29%
CSc1ncc(Cl)c(C(=O)Nc2nnc(SCc3ccccc3)s2)n1 | 0.569%
COC(=O)c1sc(N2C(=O)C(O)=C(C(=O)c3cccs3)C2c2ccc(OC)cc2)nc1C (stereo not shown) | 5.37%
O=C(COc1ccc2ccccc2c1Br)Nc1ccccc1 | -0.173%
O=C(Nc1ccc2c(c1)OCO2)c1ccc2ccccc2c1 | -0.178%
Cc1ccccc1S(=O)(=O)Cc1ccc(C(=O)N2CCC(Cc3ccccc3)CC2)o1 | -1.28%

Reference: article PMC6919601, “Identification of Plasmodium dipeptidyl aminopeptidase allosteric inhibitors by high throughput screening” (PLoS ONE, 2019)
